From the supplement of paper PMC3334620
The full ranking holds about 33,000 sequences; the median of “E-score (-0.5 to 0.5)” is about -0.016, and the highest 2% start at about 0.31. The list shows a part of the results.

target: Cst6 (UniProt P40535); test: PBM E-score (8-mer binding enrichment) (E-score (-0.5 to 0.5)); higher = stronger / more preferred TF binding; most listed sequences are background and not binding sites; conditions: protein concentration: 200 nM; construct: GST-DNA-binding domain
How it was run: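 PURExpress in vitro transcription/translation supplied GST-tagged yeast transcription factors, either full-length or DNA-binding domain. Applied at about 100-200 nM to universal all-10-mer Agilent arrays double-stranded by primer extension, the bound protein was detected with fluorescent anti-GST. E-scores, modified Wilcoxon-Mann-Whitney statistics, were given by the Universal PBM Analysis Suite to ungapped eight-base words pooled with their reverse complements after masliner normalisation.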

Row | Sequence | PBM E-score
1 | CCCAGCCA | -0.181
2 | ATGTCTAG | 0.0813
3 | CCTCGGTA | -0.338
4 | ACGTCTTC | 0.0859
5 | ACCTATGC | -0.151
6 | CGCGTTAG | 0.075
7 | ATGAACTA | 0.0467
8 | GATGGTGC | -0.251
9 | AGGTGCTA | -0.17
10 | AAGCATCA | 0.0812
11 | ACCACTTC | -0.0806
12 | AACGCAAT | 0.23
13 | CGGTGTAG | -0.163
14 | ATAGTACA | 0.0292
15 | AGCTGCGC | -0.142
16 | TAAATCTA | 0.0712
17 | AGGGAAGG | -0.28
18 | CCATTCTC | -0.101
19 | ACTTGCGC | -0.0133
20 | CGAGGTCA | -0.0231
21 | GCTCCCGA | -0.173
22 | CAAAATCA | 0.154
23 | TCTCAAGA | -0.0292
24 | CGTATGGC | 0.23
25 | GTCTTGGA | -0.155

Row | Sequence | PBM E-score
26 | CCGCGCCC | -0.0858
27 | AAGAGTAC | -0.161
28 | AATAGAGC | 0.102
29 | GGCCCGGA | -0.249
30 | CAAGCTGG | -0.287
31 | TAGATAGA | 0.0248
32 | TCATTCGA | 0.235
33 | CCAACGCC | -0.0859
34 | ATTGCAAC | -0.0853
35 | AAACCGGG | -0.102
36 | AACCCCAG | -0.195
37 | AACTGCGA | -0.124
38 | ATTTTTCC | 0.148
39 | CTGGAAGA | -0.0853
40 | AACCCCCG | -0.402
41 | GCTGCTGA | 0.0238
42 | AGGTGCGA | -0.148
43 | AGAAAGAA | -0.00996
44 | AACTTTCA | 0.183
45 | GCTCTCCA | -0.222
46 | CTGACCGA | -0.193
47 | AAAGAACC | 0.0603
48 | GCAGCGTA | -0.177
49 | AAAGGCCT | -0.0918
50 | TACTGATA | 0.195

Row | Sequence | PBM E-score
51 | AGTCACAC | 0.00702
52 | CTTTTTGC | -0.00689
53 | AGATGTAG | -0.0363
54 | ATTTAGAC | 0.126
55 | GCGCGTAA | 0.224
56 | CTAGTTCA | -0.0835
57 | AGGGATAG | -0.0446
58 | AGATCGGC | -0.193
59 | GAACGAGC | 0.0755
60 | AGGGTCGC | -0.112
61 | AATAAGCA | 0.112
62 | CCGGGCTC | -0.273
63 | ACGCCAAG | -0.0479
64 | AGGACACG | -0.315
65 | AATTATCA | 0.356
66 | AACTGGAC | 0.0255
67 | ATACGCAA | 0.283
68 | ACTGGGGA | -0.291
69 | AGTCTTGA | -0.0596
70 | AAGAAGCG | -0.146
71 | CGATTCAC | -0.0177
72 | ATGCCTAA | -0.0115
73 | CTAACGTC | 0.356
74 | CGCTGGAG | -0.183
75 | CACGAACG | -0.0536

Row | Sequence | PBM E-score
76 | ACCGCCTG | -0.277
77 | ATCTACCA | 0.0696
78 | GAGTGACA | 0.287
79 | GAGGACTA | -0.193
80 | GATGGTGA | 0.237
81 | CCCACCAC | -0.194
82 | AACCTCCA | -0.33
83 | GACTGCGA | -0.0927
84 | GCGGGAAC | -0.197
85 | AGGTGGTG | -0.0837
86 | CTATAGAA | 0.0598
87 | GATGATCC | 0.00428
88 | CTAACCGC | -0.0163
89 | CCGGAGAG | -0.191
90 | ATGCTTTC | 0.0982
91 | GGTATTTA | 0.0257
92 | AAAAGAAG | 0.193
93 | ACGGACCG | -0.235
94 | GAACTTGA | 0.0972
95 | ATTTCCCC | -0.104
96 | GATGCACA | -0.0313
97 | GTTGTCGA | 0.00085
98 | ATGATGTA | 0.462
99 | AGCACATA | -0.0193
100 | ACTCGGGC | -0.157

Row | Sequence | PBM E-score
101 | AACTTTCC | -0.158
102 | TACCTACA | 0.0531
103 | ATAAGAAA | 0.327
104 | ACTAACCG | -0.0177
105 | ACCCGAGT | -0.174
106 | TAGTCGGA | -0.176
107 | CTAACTCC | -0.287
108 | TTATCGAA | 0.178
109 | ATCGTAGA | -0.047
110 | AACGAAAA | 0.207
111 | AACGAGAA | 0.128
112 | CTTACGTA | 0.466
113 | AAGTTATA | 0.189
114 | ACCGAACC | -0.196
115 | ATGCTAGA | -0.171
116 | GGCGTATA | 0.0506
117 | ACAAAGCG | 0.12
118 | GATTAACA | 0.269
119 | ACGGAGAC | -0.00801
120 | GCTAGCGA | -0.0377
121 | ATTACCGG | -0.0505
122 | TCTAGTAA | 0.182
123 | CATCCTGG | -0.0537
124 | ATGGATGG | -0.0464
125 | CGGCTCGA | 0.0507

Row | Sequence | PBM E-score
126 | ATTAGCAG | -0.107
127 | AGTTTCGA | -0.15
128 | CCATTGGC | -0.279
129 | TCATTAGA | 0.16
130 | AGACCTGG | -0.288
131 | TCGCGCCA | -0.0121
132 | ATTACTAC | 0.12
133 | ACAGCCGT | 0.157
134 | CGTAGGAA | 0.00913
135 | TCCCGACA | -0.0435
136 | AGACTTCA | -0.143
137 | AATAAGAA | 0.312
138 | AAAGAATA | 0.226
139 | GTCCTCTA | -0.308
140 | ATGGGCCC | -0.269
141 | CAACGGAC | -0.0775
142 | CTTCGTGC | 0.0173
143 | AGGGCGTC | 0.0413
144 | ATTTTACA | 0.0693
145 | CTCCCCTA | -0.32
146 | CGCTTGCA | -0.00487
147 | CGCCGCAG | 0.171
148 | TAGCCTCA | -0.177
149 | CTCAATCC | 0.0197
150 | GGCGACTA | -0.115

Row | Sequence | PBM E-score
151 | ACGCCAGC | -0.0168
152 | TACCACAA | 0.156
153 | AGCAGGCA | -0.208
154 | AGTCGATC | -0.135
155 | TCCTAACA | 0.125
156 | AAAACACC | 0.166
157 | ACGACAAA | 0.199
158 | CTTCAGCC | -0.212
159 | ACGTAGCG | 0.129
160 | AAGAGTCT | -0.268
161 | CAAGGTCG | -0.204
162 | CGAGTTAA | 0.142
163 | CACTGAAG | 0.0206
164 | CGGGCCTC | -0.0749
165 | AATTGGTA | 0.0188
166 | CCATTAGC | -0.0497
167 | CGATTCAG | 0.0233
168 | GCTGTCTA | -0.161
169 | CGTGCCTA | -0.0374
170 | CTCAGGCC | -0.258
171 | ATCCCCCC | -0.428
172 | ACCGCAAC | 0.0509
